{"source": "PubChem BioAssay AID686992", "about": "(Broad Institute, 2013)", "note": "The whole screen tested about 260,000 compounds, of which about 960 (0.37%) were called active. The inconclusive results got no clear call from the source; some entries with a clear call stand among them for comparison.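 Rule for the calls: active = mean E-selectin-positive cell signal at least 10% of the positive control, reached in at least 60% of replicates, without over 20% cell loss; inconclusive = no rule given, readout overlaps actives, possibly toxicity-flagged; inactive = the rest, including those meeting only one limit.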"}
{"molecular_target": "E-selectin (Homo sapiens) (UniProt P16581)", "sequence (P16581 whole entry, looked up)": "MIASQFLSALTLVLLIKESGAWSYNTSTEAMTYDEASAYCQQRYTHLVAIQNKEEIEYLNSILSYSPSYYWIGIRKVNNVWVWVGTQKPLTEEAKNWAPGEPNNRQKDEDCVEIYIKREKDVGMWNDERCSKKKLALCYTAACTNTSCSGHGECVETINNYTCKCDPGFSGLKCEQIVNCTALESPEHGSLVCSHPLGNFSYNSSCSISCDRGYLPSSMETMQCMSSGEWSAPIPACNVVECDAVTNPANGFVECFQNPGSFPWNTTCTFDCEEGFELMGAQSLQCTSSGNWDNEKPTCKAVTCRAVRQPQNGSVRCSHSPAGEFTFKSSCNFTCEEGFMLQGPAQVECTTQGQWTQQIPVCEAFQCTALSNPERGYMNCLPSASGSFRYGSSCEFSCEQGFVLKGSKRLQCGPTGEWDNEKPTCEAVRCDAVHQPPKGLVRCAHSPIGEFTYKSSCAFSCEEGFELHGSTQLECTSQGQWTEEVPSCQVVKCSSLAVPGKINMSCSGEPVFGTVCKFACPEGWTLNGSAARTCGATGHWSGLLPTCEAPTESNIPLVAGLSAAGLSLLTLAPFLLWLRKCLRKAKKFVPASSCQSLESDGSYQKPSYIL", "test": "inducers of endothelial E-selectin expression – imaging, HUVEC, immunofluorescence imaging, single point, primary screen (AID 686992);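 note: signal is the percent of cells scored E-selectin positive by PE staining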", "conditions": "at 7.58 µM, hits give high values, normalized: neutral wells 0, TNF-alpha wells 100", "in_short": "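System: HUVEC / Compound: single concentration / Signal: immunofluorescence imaging / Read-out: percent E-selectin-positive cells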"}
{"smiles": "COc1ccc(S(=O)(=O)N(C)C[C@@H]2Oc3ccc(NC(=O)Nc4cccc5ccccc45)cc3CC(=O)N([C@H](C)CO)C[C@@H]2C)cc1", "activation": "inconclusive: -0.259%"}
{"smiles": "C[C@H]1CN([C@@H](C)CO)C(=O)c2cccc(NC(=O)c3cnccn3)c2O[C@H]1CN(C)Cc1ccc2c(c1)OCO2", "activation": "inconclusive: 160%"}
{"smiles": "O=C(O)Cn1cc(C(=O)C(F)(F)F)c2ccccc21", "activation": "active: 49.3%"}
{"smiles": "O=C(C[C@@H]1CC[C@H](NC(=O)c2ccncc2)[C@@H](CO)O1)NCC1CCCCC1", "activation": "inactive: 0.402%"}
{"smiles": "COc1ccc(S(=O)(=O)N2CCOCC2)cc1C(=O)NCc1ccccc1CN1CCCC1", "activation": "inconclusive: 140%"}
{"smiles": "Cc1cccc(C)c1NC(=O)C1C(c2ccc3c(c2)OCO3)=Nc2ccccc2N1C(=O)c1ccccn1", "note": "(configuration not stated)", "activation": "active: 119%"}
{"smiles": "COc1ccc(NS(=O)(=O)c2cccc(C(=O)NNC(=O)CNC(=O)c3cccc(C)c3)c2)cc1", "activation": "inconclusive: 51.9%"}
{"smiles": "CCc1c(C)nc(N)nc1Cl", "activation": "inconclusive: 30.5%"}
{"smiles": "COc1cc(F)ccc1-c1cc(C(=O)NCc2cccs2)[nH]n1", "activation": "inactive: -0.123%"}
{"smiles": "O=C(Cc1cccc(NC(=O)C2CCCN(C(=O)C3CCCC3)C2)c1)Nc1ccc(C(=O)N2CCOCC2)cc1", "note": "(configuration not stated)", "activation": "inactive: -0.198%"}
{"smiles": "C[C@H](CO)N1C[C@H](C)[C@@H](CN(C)S(=O)(=O)c2cn(C)cn2)Oc2ccc(NS(=O)(=O)c3ccc(Cl)cc3)cc2C1=O", "activation": "inconclusive: 121%"}
{"smiles": "CC1=C(C(=O)Nc2ccc(CC(=O)NCc3ccccc3C)cc2)SCCO1", "activation": "inactive: -2.1%"}
{"smiles": "O=C1NC(=O)C2(COC(c3cccc([N+](=O)[O-])c3)OC2)S1", "note": "(configuration not stated)", "activation": "active: 533%"}
{"smiles": "COc1ccc(S(=O)(=O)N(C)C[C@H]2Oc3ccc(NC(=O)CCC(F)(F)F)cc3C(=O)N([C@H](C)CO)C[C@H]2C)cc1", "activation": "inconclusive: 0.053%"}
{"smiles": "CC(C)C(OC(=O)c1cccc(S(=O)(=O)NCC(F)(F)F)c1)C(=O)NC(N)=O", "note": "(configuration not stated)", "activation": "inconclusive: 58.4%"}
{"smiles": "COc1ccc(-c2nc(C#N)c(NCCCN3CCOCC3)o2)cc1", "activation": "inconclusive: 95.3%"}
{"smiles": "CC(C)(C)S(=O)N1Cc2cc(C(=O)Nc3ccc(-c4ccccc4)cc3)nc(-c3cccc(-c4cccc(F)c4)c3)c2[C@@H]1CCO", "note": "(some centres not stated)", "activation": "active: 28.9%"}
{"smiles": "CN(C(=O)CSc1ncnc2sccc12)C1CCCCC1", "activation": "inconclusive: 133%"}
{"smiles": "COc1ccc(S(=O)(=O)N(C)C[C@@H]2Oc3c(NC(=O)Nc4cccc5ccccc45)cccc3C(=O)N([C@@H](C)CO)C[C@@H]2C)cc1", "activation": "inconclusive: 0.529%"}
{"smiles": "O=C(NCCCc1ccccc1)c1ccc(CS(=O)Cc2ccccc2Cl)o1", "note": "(configuration not stated)", "activation": "inconclusive: 40.9%"}
{"smiles": "CC(C)C[C@H]1CNC(=O)C(=O)N1CC1CCN(CCC(C)c2ccccc2)CC1", "note": "(some centres not stated)", "activation": "inconclusive: 141%"}
{"smiles": "C[C@@H]1CCCCO[C@H](CN(C)Cc2ccc(C(=O)O)cc2)[C@@H](C)CN([C@@H](C)CO)C(=O)c2cc(NC(=O)Nc3ccc4c(c3)OCO4)ccc2O1", "activation": "inactive: 0.014%"}
{"smiles": "CCN(CC)CCn1c(=N)n(CC(O)c2ccc(OC)c(OC)c2)c2ccccc21", "note": "(configuration not stated)", "activation": "inconclusive: 53.3%"}
{"smiles": "ClC(CCN1CCN(Cc2ccccc2)CC1)c1ccccc1", "note": "(configuration not stated)", "activation": "inconclusive: 57.2%"}
{"smiles": "CCCC(=O)Nc1ccc2c(c1)OC[C@H](C)N(Cc1ccc(-c3ccccn3)cc1)C[C@H](C)[C@H](OC)CN(C)C2=O", "activation": "inactive: 0.128%"}
{"smiles": "c1ccc(OCc2noc(CN3CCC(C4CCCCC4)C3)n2)cc1", "note": "(configuration not stated)", "activation": "inactive: 0.032%"}
{"smiles": "O=C(O)c1ccc(N2CCOCC2)c(N2C(=O)C3C4C=CC(C4)C3C2=O)c1", "note": "(configuration not stated)", "activation": "inconclusive: 41.2%"}
{"smiles": "CC(C)CC#Cc1ccc2c(c1)O[C@H](CN(C)C(=O)c1ccccc1)[C@@H](C)CN([C@@H](C)CO)S2(=O)=O", "activation": "inconclusive: 53.8%"}
{"smiles": "CC(=O)Nc1ccc(NC(=O)Nc2ccccc2)cc1", "activation": "inconclusive: 36.4%"}
{"smiles": "CCCCCCCC/C=C\\CCCCCCCC(=O)NCCc1ccc(O)c(O)c1", "activation": "inconclusive: 66.4%"}
{"smiles": "COc1cc(C(=O)NNc2nc3cc4c(cc3s2)OCO4)cc(OC)c1OC", "activation": "active: 108%"}
{"smiles": "COc1ccccc1-c1ccccc1[C@H]1[C@@H](C#N)N(C(=O)C2CC2)[C@H]1CO", "activation": "inconclusive: 45.3%"}
{"smiles": "CCOC(=O)[C@]12CCCC=C1N(CCC1=CCCCC1)C(=O)[C@H](CC(=O)NCCC(C)C)C2", "activation": "inconclusive: 136%"}
{"smiles": "CC[n+]1ccc(/C=C/c2ccc(N(C)C)cc2)c2ccccc21", "activation": "active: 115%"}
{"smiles": "C[C@@H]1CN([C@@H](C)CO)C(=O)Cc2cc(NC(=O)Cc3ccccc3)ccc2O[C@H]1CN(C)C(=O)Nc1cccc2ccccc12", "activation": "active: 338%"}
{"smiles": "C[C@H](CO)N1C[C@H](C)[C@H](CN(C)C(=O)c2cccc(F)c2)Oc2ncc(C3=CCCCC3)cc2C1=O", "activation": "inconclusive: 36.9%"}
{"smiles": "CCC(=O)N1CC2(C1)CN(Cc1cccc(F)c1)[C@@H](CO)c1c2c2ccc(OC)cc2n1C", "activation": "inactive: -0.268%"}
{"smiles": "C[C@@H]1CN([C@H](C)CO)C(=O)Cc2cc(NS(=O)(=O)c3ccc(F)cc3)ccc2O[C@H]1CN(C)Cc1ccccc1", "activation": "inconclusive: 0.108%"}
{"smiles": "OCCn1c(-c2ccc3c(c2)OCO3)csc1=Nc1ccccc1", "activation": "inactive: 0.071%"}
{"smiles": "C[C@@H]1CN([C@H](C)CO)S(=O)(=O)c2ccc(Br)cc2O[C@H]1CN(C)C(=O)Nc1ccc(F)cc1", "activation": "inconclusive: 53.3%"}
{"smiles": "COc1ccc(CCNS(=O)(=O)c2ccc3c(c2)NC(=O)CS3)cc1OC", "activation": "active: 114%"}
{"smiles": "O=S(=O)(NCc1cccnc1)c1ccc(Cl)c2ccccc12", "activation": "active: 27.1%"}
{"smiles": "CCCOc1ccc(C2=CSC3=NCCN23)cc1[N+](=O)[O-]", "activation": "inconclusive: 41.2%"}
{"smiles": "CC(C)NC(=O)Nc1cccc2c1O[C@H](CN(C)Cc1ccc(Cl)c(Cl)c1)[C@@H](C)CN([C@@H](C)CO)C2=O", "activation": "active: 52.6%"}
{"smiles": "C[C@@H]1CN([C@H](C)CO)C(=O)c2cc(NC(=O)c3ccncc3)ccc2O[C@@H]1CN(C)C(=O)Nc1ccc2c(c1)OCO2", "activation": "active: 39.8%"}
{"smiles": "COc1ccnc(-n2cccc2/C=N/O)c1C#N", "activation": "inconclusive: 33.2%"}
{"smiles": "CCNC(=O)/C=C/c1ccccc1[N+](=O)[O-]", "activation": "active: 30.5%"}
